According to the antibiotic and cytotoxicity screens of Wong et al. (2023):
The other results are listed elsewhere or left out.

Tests used:
[1] = test system: HSkMC (human skeletal muscle cells); assay: cytotoxicity call (relative viability < 0.9); details: 10 µM
[2] = test system: HepG2; assay: cytotoxicity call (relative viability < 0.9); details: 10 µM
[3] = test system: S. aureus RN4220; assay: growth inhibition call (relative growth <= 0.2); details: 50 µM

SMILES | cytotoxicity call [1] | cytotoxicity call [2] | growth inhibition call [3]
CN1C2CCC1CC(O)C2 (stereo not drawn) | inactive | inactive | inactive
C[C@]12CC[C@H](Cl)C[C@@H]1CC[C@@H]1[C@@H]2CC[C@]2(C)C(=O)CC[C@@H]12 | inactive | inactive | inactive
CCC1(CC)C(=O)NC(=O)NC1=O | inactive | inactive | inactive
c1ccc2sc(C3(N4CCCCC4)CCCCC3)cc2c1 | inactive | inactive | inactive
C[C@@H](N)Cc1cnc[nH]1 | inactive | inactive | inactive
CC(C)CCC[C@]1(C)C=Cc2c(O)c3c(c(CCC(C)C)c2O1)O[C@]12[C@H](C[C@@H]4C[C@H]1C(C)(C)O[C@]2(CC[C@@H](C)C(=O)O)[C@@H]4O)C3=O | inactive | inactive | inactive
CC(=O)CC1CCCCN1.Cl (stereo not drawn) | inactive | inactive | inactive
CN(C)C(=O)Oc1cccc([N+](C)(C)C)c1.[Br-] | inactive | inactive | inactive
[N-]=[N+]=CC(=O)OCC(N)C(=O)O (stereo not drawn) | inactive | active | inactive
O=C(NC(=O)c1ccccc1Cl)Nc1ccc(OC(F)(F)F)cc1 | inactive | inactive | inactive
CC(C)(C)NCC(O)c1ccccc1Cl.Cl (stereo not drawn) | inactive | inactive | inactive
O=[N+]([O-])c1ccc([As](=O)(O)O)cc1 | inactive | active | inactive
c1cc(N2CCNCC2)ccn1 | inactive | inactive | inactive
CC1=C[C@H]2O[C@@H]3[C@H](O)[C@@H](O[C@H]4O[C@H](CO)[C@@H](O)[C@H](O)[C@H]4O)[C@](C)([C@@]2(CO)CC1)[C@]31CO1 | active | active | inactive
CCNS(=O)(=O)C(F)(F)C(F)(F)C(F)(F)C(F)(F)C(F)(F)C(F)(F)C(F)(F)C(F)(F)F | inactive | inactive | inactive
Cc1ncc(CNC(=O)N(CCCl)[NH2+][O-])c(N)n1 | inactive | inactive | inactive
C[N+](C)(C)C[C@H]1CCC[C@@H]1O | inactive | inactive | inactive
CN(CCC[C@@H](O)c1cccnc1)[NH2+][O-] | inactive | inactive | inactive
O=C(c1ccco1)N1C[C@H]2CN[C@@H](C2)C1 | inactive | inactive | inactive
CCC1=C[C@@H]2[C@H](C1)C[C@]2(CN)CC(=O)O | inactive | inactive | inactive
COc1ccc(C[C@@H](N)c2ccc(C)cn2)cc1OC | inactive | inactive | inactive

SMILES | cytotoxicity call [1] | cytotoxicity call [2] | growth inhibition call [3]
Oc1c(Cl)c(Cl)c(Cl)c(Cl)c1Cl | inactive | inactive | active
CC(C)c1cc2c(c(O)c1O)C1(C(=O)O)CCCC(C)(C)C1CC2 (stereo not drawn) | inactive | inactive | inactive
COc1ccc(OC(=O)N(C)C[C@H]2OCc3ccccc3-c3c(n(C)c4ccccc34)C(=O)N([C@@H](C)CO)C[C@@H]2C)cc1 | inactive | inactive | inactive
Cc1cccc(C)c1NC(=O)CN1CCCC1=O | inactive | inactive | inactive
C[C@H]1O[C@H](n2cnc3c(N)ncnc32)C[C@@H]1O | inactive | inactive | inactive
Nc1ccc(-c2ccccc2)cc1 | inactive | inactive | inactive
CCC(C)C(=O)OC1CC2(C)C(c3ccoc3)OC(=O)CC23OC2(C)OC34C(OC(=O)C(C)C)C3(O)C(OC(=O)C5(C)OC5C)C5(C)CC3(O)C(C)(C5CC(=O)OC)C14O2 (stereo not drawn) | inactive | inactive | inactive
CP(=O)(O)C1=CCNCC1 | inactive | inactive | inactive
c1csc(N2CCNCC2)n1 | inactive | inactive | inactive
O=[N+]([O-])NC1=NCCN1Cc1ccc(Cl)nc1 | inactive | inactive | inactive
C[C@H](CO)N1C[C@H](C)[C@@H](CN(C)C(=O)Oc2ccc3ccccc3c2)OCc2cnnn2CCCC1=O | inactive | inactive | inactive
C[C@H](CO)N1C[C@H](C)[C@H](CN(C)C(=O)Oc2ccc3ccccc3c2)OCc2cnnn2CCCC1=O | inactive | inactive | inactive
CCn1cnc2c(Nc3cccc(Cl)c3)nc(N[C@@H]3CCCC[C@@H]3N)nc21 | active | active | inactive
Br.CN1C2CC(OC(=O)C(CO)c3ccccc3)CC1C1OC12 (stereo not drawn) | inactive | inactive | inactive
CN(C)C(=O)C(CCN1CCC(O)(c2ccc(Cl)cc2)CC1)(c1ccccc1)c1ccccc1.Cl | inactive | active | inactive
NC(=O)c1cc([N+](=O)[O-])cc([N+](=O)[O-])c1 | inactive | inactive | inactive
COc1ccc(O)c(C(C)(C)C)c1 | inactive | inactive | inactive
COCC12CN(C=O)C3C4C(OC)C1C3(C(OC)CC2O)C1CC2(O)C(OC)C(O)C4(OC(C)=O)C1C2OC(=O)c1ccccc1 (stereo not drawn) | inactive | inactive | inactive
COc1cc2c(cc1OC)C1C(=O)c3ccc4c(c3OC1CO2)CC(C(C)C)O4 (stereo not drawn) | inactive | active | inactive
C[C@H]1CN(C)[C@@H](C)C[C@@H]1n1[nH]c(=O)cc1N | inactive | inactive | inactive
NC(=N[N+](=O)[O-])NCCC[C@H](N)C(=O)O | inactive | inactive | inactive

SMILES | cytotoxicity call [1] | cytotoxicity call [2] | growth inhibition call [3]
c1ccc(-c2ccncc2)cc1 | inactive | inactive | inactive
COc1cc2occc2c2oc(=O)ccc12 | inactive | inactive | inactive
C[C@@H]1CN([C@H](C)CO)C(=O)CCCn2cc(nn2)CO[C@H]1CN(C)C(=O)Oc1cccc2ccccc12 | inactive | inactive | inactive
COC1=CC(=O)OC(C=Cc2ccccc2)C1 (stereo not drawn) | inactive | inactive | inactive
OC[C@H]1O[C@@H](Oc2c[nH]c3ccc(Br)c(Cl)c23)[C@H](O)[C@@H](O)[C@H]1O | inactive | inactive | inactive
O=[N+]([O-])c1ccc2c3c(cccc13)CC2 | inactive | inactive | inactive
Cc1ccc(N=CN(C)C=Nc2ccc(C)cc2C)c(C)c1 | inactive | inactive | inactive
NC[C@@H](O)c1ccc(Br)cc1 | inactive | inactive | inactive
Nc1ccc2c(c1)Cc1ccccc1-2 | inactive | inactive | inactive
CCN(C(C)=O)c1cccc(-c2ccnc3c(C#N)cnn23)c1 | inactive | inactive | inactive
CN(C)[C@@H]1C(=O)[C@@H](C(N)=O)C(=O)[C@@]2(O)C(=O)[C@H]3C(=O)c4c(O)ccc(Cl)c4[C@@](C)(O)[C@H]3C[C@@H]12 | inactive | inactive | active
CC12CCC3c4ccc(OC(=O)N(CCCl)CCCl)cc4CCC3C1CCC2O (stereo not drawn) | inactive | active | inactive
C[N+](C)(C)CC(=O)[O-].Cl | inactive | inactive | inactive
NC(=O)CN1CCCC1=O | inactive | inactive | inactive
NC(=O)CN1C[C@H](O)CC1=O | inactive | inactive | inactive
O=c1[nH]c2ccccc2n1C1CCN(Cc2ccc(-c3nc4cc5[nH]cnc5cc4nc3-c3ccccc3)cc2)CC1 | active | active | inactive
CN1C[C@@H](NC(=O)C2CC2)[C@H]2OCCC[C@H]21 | inactive | inactive | inactive
CCC(C)C(=O)OC1CC2(C)C(c3ccoc3)OC(=O)CC23OC2(C)OC34C(OC(C)=O)C3(O)C(OC(=O)C5(C)OC5C)C5(C)CC3(O)C(C)(C5CC(=O)OC)C14O2 (stereo not drawn) | inactive | inactive | inactive
C[C@H](O)[C@]12[C@@H]3CC=C[C@H]1N2CC3 (stereo partly drawn) | inactive | inactive | inactive
CC(=O)OCC1=C(C(=O)[O-])N2C(=O)C(NC(=O)CCCC(N)C(=O)[O-])C2SC1.[Zn+2] (stereo not drawn) | inactive | inactive | inactive
C1CCN(C[C@H]2CO[C@]3(CNCCOC3)C2)C1 | inactive | inactive | inactive

SMILES | cytotoxicity call [1] | cytotoxicity call [2] | growth inhibition call [3]
C[C@@H]1CN([C@H](C)CO)C(=O)CCCn2nncc2CO[C@H]1CN(C)C(=O)Oc1ccc2ccccc2c1 | inactive | inactive | inactive
CN1CCOC[C@]2(CCCNC2)C1 | inactive | inactive | inactive
NCCN1CCN(c2ccc(F)cc2)CC1 | inactive | inactive | inactive
CC[C@@H](C)C(=O)O[C@@H]1C[C@@]2(C)[C@H](c3ccoc3)OC(=O)C[C@]23O[C@@]2(C)O[C@]34[C@H](OC(=O)C(C)C)[C@@]3(O)[C@@H](OC(=O)[C@@]5(C)O[C@@H]5C)[C@@]5(C)C[C@]3(O)[C@@](C)([C@H]5CC(=O)OC)[C@@]14O2 | inactive | inactive | inactive
[O-][n+]1ccccc1[S][Zn][S]c1cccc[n+]1[O-] | active | active | active
CCC1(c2ccccc2)C(=O)NC(=O)NC1=O | inactive | inactive | inactive
CC(C)(C#N)O[C@@H]1O[C@H](CO)[C@@H](O)[C@H](O)[C@H]1O | inactive | inactive | inactive
C#CCO[C@H]1CN2CCC1CC2 | inactive | inactive | inactive
COc1ccc(C2(CN)CCOCC2)cc1 | inactive | inactive | inactive
CCC1C2CC3C4N(C)c5ccccc5C45CC(C2C5O)N3C1O (stereo not drawn) | inactive | inactive | inactive
CSC1=NN1c1cc(C)nc(N)n1 | inactive | inactive | inactive
FCCN1C[C@H]2CCN[C@H]2C1 | inactive | inactive | inactive
CO[C@H]1C[C@H](O[C@H]2CC[C@]3(C=O)[C@H]4CC[C@]5(C)[C@@H](C6=CC(=O)OC6)CC[C@]5(O)[C@@H]4CC[C@]3(O)C2)O[C@H](C)[C@H]1O | active | active | inactive
CCC1(C)CC(=O)NC(=O)C1 | inactive | inactive | inactive
CCOP(=S)(OCC)Oc1nc(Cl)c(Cl)cc1Cl | inactive | inactive | inactive
CCC[C@@H](CN)c1ccc(F)cc1 | inactive | inactive | inactive
Oc1ccc(N2CCNCC2)cc1 | inactive | inactive | inactive
C[C@H]1CN([C@@H](C)CO)C(=O)CCCn2cc(nn2)CO[C@@H]1CN(C)C(=O)Oc1cccc2ccccc12 | inactive | inactive | inactive
